SMILES strings stand for the structures. Among all 340,000 compounds or so, about 6,900 (2%) were called active. No stated cut-off is given here; in the data, active means inhibition above about 30%; inactive means below that, where a call was filed. The list shows a part of the results, in another mix than the full data. The source gives no active or inactive call for entries shown without one.

Chain of UniProt P14416 (P14416 whole entry, looked up): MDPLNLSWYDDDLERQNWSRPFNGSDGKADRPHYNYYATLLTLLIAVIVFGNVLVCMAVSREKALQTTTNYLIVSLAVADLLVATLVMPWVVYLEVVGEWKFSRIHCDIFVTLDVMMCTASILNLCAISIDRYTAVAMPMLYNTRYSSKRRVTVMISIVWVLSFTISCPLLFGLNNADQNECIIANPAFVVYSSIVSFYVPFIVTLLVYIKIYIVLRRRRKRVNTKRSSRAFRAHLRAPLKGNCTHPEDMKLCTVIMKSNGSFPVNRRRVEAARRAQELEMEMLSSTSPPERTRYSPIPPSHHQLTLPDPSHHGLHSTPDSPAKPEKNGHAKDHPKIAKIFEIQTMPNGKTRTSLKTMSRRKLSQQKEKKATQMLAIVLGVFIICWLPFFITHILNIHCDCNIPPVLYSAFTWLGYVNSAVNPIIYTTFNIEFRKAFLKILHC

This assay has as its target D(2) dopamine receptor (Homo sapiens) (UniProt P14416). The experiment in a line: HTS Assay for Allosteric Antagonists of the Human D2 Dopamine Receptor: Primary Screen for Antagonists. Further: 0% is about no effect. Conditions: HEK293 TREx D2 cells, calcium flux, dopamine EC80; at 10 µM; stronger effect = higher value. The procedure, abridged:
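Antagonism is scored as inhibition of an EC80 dopamine-evoked calcium signal in a force-coupled, tetracycline-inducible HEK293 T-REx D2 line, with compound present 180 s before agonist.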
For orientation: inhibition means the change of the read-out against control, counted positive when it falls. As for `COc1ccc(Cl)cc1NC(=O)CSc1c2c(nc3ccccc13)CCC2`, the inhibition was 3.6%. To `O=C(c1ccc2c(c1)N(Cc1ccc(F)cc1)C(=O)c1ccccc1S2=O)N1CCOCC1` (centres undefined) belongs 1.49%.

On to `CCN(c1ccccc1)S(=O)(=O)c1ccc(NC(=O)c2cc(=O)c3cc(C)ccc3o2)cc1`, for which the inhibition was -3.57%. To `O=C(c1cc2ccccc2o1)N1CCN(C/C=C/c2ccccc2)CC1` belongs active: 77%; to `Cc1ccc(C)n1-c1ccc(C(=O)NC2CCN(Cc3ccccc3)CC2)cc1`, active: 84.8%; to `Cc1cc(C)c2c(n1)nn1c(C)c(CCC(=O)NCc3ccccc3Cl)c(C)nc21`, 9.79%. To `COC(=O)c1c(C)sc(-c2c(-c3ccc4c(c3)OCCO4)[nH]c3[nH]c(=O)[nH]c(=O)c23)c1O` belongs 8.98%; to `CC(C)CC(C(=O)Nc1ccc2c(c1)OCCO2)N1C(=O)c2ccccc2C1=O` (centres undefined), active: 57%; to `CCOc1ccc(-c2cc3nc(C4CCN(C(=O)OC(C)(C)C)CC4)c(C(=O)Nc4ccc(C)cc4Cl)cn3n2)cc1`, -4.18%. To `CN1CCSc2ccc(C(=O)NCc3ccccc3F)cc21` belongs 11.1%; to `O=C(OCC1CCCO1)c1ccc2c(c1)N(Cc1cccc(Cl)c1)C(=O)c1ccccc1S2(=O)=O` (centres undefined), 5.43%.

In the case of `Cc1ccc(NC(=O)NCCOCCn2c(=O)oc3ccccc32)cc1F`, the inhibition is -14.3%. Take `Cc1cccc(NC(=O)c2c(NC(=O)c3ccccc3)sc3c2CCCC3)c1`: the inhibition was -4.09%. The figure for `COc1ccc(S(=O)(=O)NCC(=O)N(CC(=O)NCc2ccco2)C2CCCC2)cc1` is active: 46.7%. To `CC(C)Oc1ccc(CNC(=O)Nc2ccc3c(c2)N(C)C(=O)c2ccccc2S3)cc1` belongs 9.92%; to `COc1cccc(/C(O)=C2/C(=O)C(=O)N(c3ccccn3)C2c2ccc(OC)c(OC)c2)c1` (centres undefined), active: 31.8%; to `CCCSc1ncc(Cl)c(C(=O)Nc2c(C(=O)Nc3ccccc3)oc3ccccc23)n1`, 1.65%.

Regarding `COc1ccc(N2CCN(S(=O)(=O)CCNC(=O)COc3cccc(OC)c3)CC2)cc1`, the inhibition turned out to be 19.5%.

As for `Cc1cccc(Cn2c(SCc3ccc(C(=O)N4CCC(C)CC4)cc3)nc3ccncc32)c1`, the inhibition is -10.3%. The figure for `Cc1ccc(C)c(OCCC(=O)OCC(=O)N2c3ccccc3NC(=O)C2(C)C)c1` is active: 42.3%; for `COc1ccccc1NC(=O)CN1C(=O)CC(c2ccc(C)c(C)c2)=Nc2ccccc21` it is 10.2%.

`COc1ccccc1CCNC(=O)Cc1c(C)c2cc3c(C(C)(C)C)coc3c(C)c2oc1=O`: the inhibition is 9.46%.

As for `CCCc1cc(=O)[nH]c(SCc2nc(-c3ccc(C)cc3)no2)n1`, the inhibition amounted to 6.82%. Consider `COc1ccc(CCNC(=O)c2ccc(-n3c(C)cc4c3CCCC4)cc2)cc1OC`, for which the inhibition was 3.63%. On to `Cc1cccc(NC(=O)Cn2cnc(S(=O)(=O)N3CCCC3)c2)c1C`, for which the inhibition came to 11%. To `COC(=O)c1ccc(Cl)cc1NC(=O)NCc1c(-n2cccc2)sc2c1CCCC2` belongs -2.29%. To `O=C(Nc1cccc2cccnc12)c1cccc2ccccc12` belongs 0.138%; to `CCOC(=O)c1ccc(NC(=O)c2csc3c2CCCC3)cc1`, 3.7%. Take `CCOc1ccc(C(=O)Nc2ccc(C(=O)OCc3cc(=O)n4ccsc4n3)cc2)cc1`: the inhibition amounted to 9.01%. To `COc1cccc(N2CCN(C(=O)c3cc4c(=O)n(Cc5cccs5)ccc4nc3C)CC2)c1` belongs 12.1%; to `C=CCOc1ccccc1CN1CCC(Cc2ccccc2)CC1`, active: 30.7%; to `Cc1ccc(CNC(=O)Cn2ncc3c([nH]c4ccc(C)cc43)c2=O)cc1`, 4.28%. As for `CSc1ncc(C(=O)NCc2ccc(Cl)cc2)c(C(F)(F)F)n1`, the inhibition worked out at 3.98%. The figure for `CCn1c(CN2CCCCC2)nc2cc(NC(=O)c3ccccc3[N+](=O)[O-])ccc21` is 10.8%; for `CCOC(=O)CSc1nc(-c2ccccc2)cc(C(F)(F)F)c1C#N` it is 27.2%; for `Cc1ccc(NC(=O)c2c(C(=O)Nc3ccccc3)sc3nc(C)cc(=O)n23)c(C)c1` it is 1.98%.

Regarding `Cc1nn(-c2ccccc2)c(OC(=O)c2ccc(F)cc2)c1S(=O)(=O)c1ccccc1`, the inhibition was 4.99%.

In the case of `CCN(C(=O)CCNC(=O)Cn1cnc2ccccc2c1=O)c1cccc(Cl)c1`, the inhibition is -7.08%. The figure for `COc1cccc(NC(=O)C(=O)NCCc2csc(-c3ccc(C)cc3)n2)c1` is -10.1%; for `CCCn1cc(S(=O)(=O)c2ccc(C)cc2)c(=O)c2cc(OC)c(OC)cc21` it is -6.75%. Regarding `COc1ccc(C2=C(C)C(N3CCC(C(=O)Nc4cc(C)ccc4C)CC3)=NS2(=O)=O)cc1`, the inhibition was -8.29%.

For `O=C(Nc1ccccc1-c1nnn(CC(=O)N2CCCc3ccccc32)n1)c1ccc(Cl)cc1`, the inhibition is active: 47.4%. The figure for `Cc1ccc(OCC(=O)Nc2cc(-c3nc4ccccc4[nH]3)ccc2C)c(C)c1` is -9.35%; for `CC(=O)c1ccc(NC(=O)c2ccc(NC(=O)CCS(=O)(=O)c3cccs3)cc2)cc1` it is -10.2%.

Consider `Cc1cccc(Cn2cc(S(=O)(=O)c3ccc(Cl)cc3)c(=O)c3cc4c(cc32)OCO4)c1`, for which the inhibition was 9.06%.

Regarding `Cn1c(=O)c2c(SCC(=O)NCC3CCCO3)nc(-c3cccc(F)c3)nc2n(C)c1=O` (centres undefined), the inhibition amounted to 3.44%. Regarding `Cc1cccc(OCCSc2nc3ccc(NC(=O)c4cccs4)cc3s2)c1`, the inhibition was -23.4%. To `CS(=O)(=O)N1CCC(n2c(C(F)(F)F)nc3cccnc32)CC1` belongs -2.51%.

For the compound `Cc1cccc(C)c1Nc1c(-c2cccs2)nc2ncccn12`, the inhibition stood at 10.1%. As to `CCCCC(=O)Nc1cc2nn(-c3ccc(OCC)cc3)nc2cc1C`, the inhibition is -12.5%. To `CCc1nn(Cc2cccc(F)c2)c(=O)c2cc3cc(C)ccc3n12` belongs 3.24%; to `Cc1ccc(-n2ncc(C(=O)N3CCN(c4ccccn4)CC3)c2C2CCN(C(=O)OC(C)(C)C)CC2)cc1`, -5.59%. The figure for `CCC(C)NC(=O)Cn1c(=O)n(-c2ccc(Cl)c(Cl)c2)c(=O)c2c(C)c(C(=O)N(CC)CC)sc21` (centres undefined) is -21.5%. To `COc1ccc(NS(=O)(=O)c2ccc(C)c(C(=O)N3CCC3)c2)cc1` belongs active: 48.9%; to `COC(=O)c1ccccc1NC(=O)Cn1c(=O)nc(-c2ccccc2)c2cc(Cl)ccc21`, 0.6%.

For `Cc1ccc(NC(=O)c2cc(S(=O)(=O)N3CCCc4ccccc43)ccc2F)cc1F`, the inhibition is -20.2%.

Take `O=C(C1CC1)N1CCc2cc(Br)cc(S(=O)(=O)N3CCN(c4cccc(Cl)c4)CC3)c21`: the inhibition is -1.87%.

Turning to `Cc1ccc2nc(COc3cccc(NC(=O)COc4ccccc4F)c3)cc(=O)n2c1`, the inhibition was determined as 7.22%. To `CCOC(=O)c1cc(-c2ccccc2)n(-c2cccc(C(=O)Nc3cccc(C)c3)c2)c1C` belongs 6.16%. To `Cc1cccc(OCC(=O)OCc2cc(=O)n3nc(-c4cccs4)sc3n2)c1` belongs 2.52%; to `O=C(Nc1ccc2nc(SCC(=O)N3CCCC3)sc2c1)c1ccc(Br)cc1`, 3.98%; to `Cc1ccc(CSc2ccc3nnc(CCNS(=O)(=O)c4ccc(C)cc4)n3n2)cc1`, -13.3%. The figure for `O=C(COC(=O)CNC(=O)c1ccccc1)Nc1ccc(F)c([N+](=O)[O-])c1` is active: 34.4%. Take `CCOC(=O)CC(=O)CSc1nc2ccccc2c(=O)n1-c1ccc(C(=O)NCCOC)cc1`: the inhibition is -7.71%. The figure for `COC(=O)c1ccc(C(=O)OC)c(NC(=O)N2CC3CCCN3c3ccccc32)c1` (centres undefined) is 6.17%; for `CCOc1ccccc1NC(=O)CSc1nc2c([nH]c3ccccc32)c(=O)n1-c1ccccc1` it is -27.3%. The figure for `CCOC(=O)c1c(-c2ccc(C)cc2)csc1NC(=O)c1cc(=O)c2cc(Cl)ccc2o1` is 9.08%; for `O=C(CC1NCCNC1=O)Nc1ccccc1F` (centres undefined) it is 18.7%; for `Cc1ccc(Cl)cc1N1CCN(C(=O)c2cc3c(=O)n(C)c4ccccc4c3s2)CC1` it is -17%. To `Cc1ccc(OCc2nc(-c3ccc(C(=O)N4CCN(c5cc(Cl)ccc5C)CC4)cc3)oc2C)cc1` belongs 12.8%.

In the case of `O=S(=O)(c1ccccc1)c1nc(-c2cccs2)oc1SCc1ccccc1Cl`, the inhibition was -5.73%.

For the compound `CCOc1ccc(Cn2c(CNS(=O)(=O)c3c(C)cc(C)cc3C)nc3cccnc32)cc1`, the inhibition came out at 5.77%. For `CCC(C)n1c(SCc2ccc(C(C)(C)C)cc2)nc2ccsc2c1=O` (centres undefined), the inhibition worked out at 3.4%. Consider `CCn1c(=O)sc2cc(NC(=O)c3cccc(OC)c3)ccc21`, for which the inhibition was -1.8%. To `CCN1CCN(c2nnc(-n3cccc3C(=O)Nc3cccc(OC)c3)s2)CC1` belongs 14%. To `O=C(Cn1ccn(-c2ccc(F)c(F)c2)c(=O)c1=O)c1ccc(F)cc1` belongs 1.83%; to `CC(C)c1nn2c(=O)cc(COC(=O)CNC(=O)c3ccccc3Cl)nc2s1`, 7.82%; to `Nc1ccc2oc(CCc3ccccc3)nc2c1`, active: 37.9%. To `CC(=O)c1ccc(NC(=O)CCCc2nc(-c3cccc(C)c3)no2)cc1` belongs -19.8%; to `O=C(Cn1cc(C(=O)C2CC2)c2ccccc21)Nc1ccc(Br)cc1`, -3.94%; to `CCC1CCCCN1CCCNC(=O)c1ccc2c(c1)N(Cc1ccc(Cl)cc1)C(=O)c1ccccc1S2(=O)=O` (centres undefined), -15.2%. Regarding `COc1ccccc1N1CCN(c2ccc(-c3nc(-c4ccccc4)no3)cc2[N+](=O)[O-])CC1`, the inhibition worked out at 8.61%. The figure for `COc1ccc(-c2cc(N)n(S(=O)(=O)c3c(F)c(F)c(F)c(F)c3F)n2)cc1OC` is active: 34.9%; for `O=C(CN1C(=O)CSc2ccc(S(=O)(=O)N3CCCC3)cc21)NCc1ccc(Cl)cc1` it is -6.65%; for `COc1ccc(NC(=O)CN2C(=O)COc3ccc(S(=O)(=O)N4CCCCC4)cc32)cc1Cl` it is -27%. In the case of `COc1ccc(NC(=O)c2oc3ccccc3c2NC(=O)Cc2cccs2)cc1`, the inhibition is -12.4%. The figure for `COc1ccc(C2Nc3ccccc3C(=O)N2NS(=O)(=O)c2ccccc2)cc1` (centres undefined) is active: 39%. To `COc1ccc(C)cc1NC(=O)N1CCN(c2cc(-c3noc(C)n3)ccc2C)CC1` belongs -14.7%. The figure for `Cc1c(C)n(Cc2ccc(F)cc2)c2ccc(C(=O)Nc3ccc(Cl)cc3)cc12` is 7.63%; for `O=C(CC1C(=O)N(c2ccccc2)C(=O)N1Cc1ccc2c(c1)OCO2)Nc1ccccc1` (centres undefined) it is 0.481%; for `O=C1CC(c2nnc(Cc3ccccc3Cl)o2)CN1c1ccccc1` (centres undefined) it is 1.31%. Regarding `Cc1ccc(-c2cc3c(n2-c2ccccc2F)CC(C)(C)CC3=O)cc1`, the inhibition was 8.63%. To `O=S(=O)(Cc1ccccc1)Nn1cnnc1` belongs active: 31.4%. The figure for `CCOC(=O)c1ccc(CN(Cc2ccccc2C)S(=O)(=O)c2ccc(F)c(C(=O)Nc3cccc(OC)c3)c2)cc1` is -4.46%.

For the origin of these results see PubChem BioAssay AID485344 (National Center for Advancing Translational Sciences (NCATS), 2010).
